Measured values taken from paper PMC4336329 (PLoS ONE, 2015).
About 14,000 (4.5%) of roughly 310,000 compounds showed an effect of 50% or more. Effects have a minus sign here. This is one part of the list.
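Also: peak tail current of the secondary pulse compared with the same well before compound.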

What follows are molecules tested against human ether-à-go-go-related gene (hERG) potassium channel (human, UniProt Q12809) (assay: primary screen, population patch clamp on CHO cells stably expressing hERG).
Sequence of human ether-à-go-go-related gene (hERG) potassium channel (Q12809 whole entry, looked up): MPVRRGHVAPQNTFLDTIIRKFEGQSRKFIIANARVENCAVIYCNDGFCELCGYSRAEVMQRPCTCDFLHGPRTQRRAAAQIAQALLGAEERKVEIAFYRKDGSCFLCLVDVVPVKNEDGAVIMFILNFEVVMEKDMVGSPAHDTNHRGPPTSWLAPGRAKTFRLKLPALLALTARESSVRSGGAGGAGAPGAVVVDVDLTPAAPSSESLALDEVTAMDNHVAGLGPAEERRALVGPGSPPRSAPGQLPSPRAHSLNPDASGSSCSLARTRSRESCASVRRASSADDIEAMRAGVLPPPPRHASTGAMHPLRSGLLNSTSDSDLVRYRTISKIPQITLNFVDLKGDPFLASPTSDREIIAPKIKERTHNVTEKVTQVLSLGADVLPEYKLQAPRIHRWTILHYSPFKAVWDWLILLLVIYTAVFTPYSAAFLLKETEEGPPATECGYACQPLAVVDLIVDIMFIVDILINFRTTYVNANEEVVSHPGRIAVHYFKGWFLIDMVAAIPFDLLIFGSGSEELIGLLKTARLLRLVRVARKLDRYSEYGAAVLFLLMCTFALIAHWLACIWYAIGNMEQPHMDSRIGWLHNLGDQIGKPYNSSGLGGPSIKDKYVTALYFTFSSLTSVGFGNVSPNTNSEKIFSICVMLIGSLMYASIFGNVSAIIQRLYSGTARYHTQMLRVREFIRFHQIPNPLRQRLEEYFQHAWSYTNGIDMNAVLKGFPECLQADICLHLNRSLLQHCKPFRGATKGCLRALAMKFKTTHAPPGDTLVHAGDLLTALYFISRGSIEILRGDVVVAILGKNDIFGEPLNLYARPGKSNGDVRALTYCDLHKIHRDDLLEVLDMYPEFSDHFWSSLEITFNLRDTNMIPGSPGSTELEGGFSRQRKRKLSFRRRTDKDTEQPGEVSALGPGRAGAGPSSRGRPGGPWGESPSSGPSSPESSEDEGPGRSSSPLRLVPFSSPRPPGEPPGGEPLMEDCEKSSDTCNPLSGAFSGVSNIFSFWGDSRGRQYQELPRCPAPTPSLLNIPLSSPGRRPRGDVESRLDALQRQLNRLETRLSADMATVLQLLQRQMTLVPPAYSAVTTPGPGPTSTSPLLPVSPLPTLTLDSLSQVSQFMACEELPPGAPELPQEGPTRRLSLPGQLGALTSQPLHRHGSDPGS
In the case of `CCOc1ccc(C2C(C(=O)c3ccco3)=C(O)C(=O)N2CCN2CCOCC2)cc1OCC` (stereo not shown), the “hERG current change (%, negative = inhibition) at 10uM” value is reported as 23.6%.
In the case of `O=c1[nH]c2ccccc2nc1Cc1ccc(Cl)cc1`, the “hERG current change (%, negative = inhibition) at 10uM” value is reported as 16.2%.
`CCc1cccc(C)c1N(C(=O)Cn1c(CO)nc2ccccc21)C(C)COC` (stereo not shown) was tested, and the “hERG current change (%, negative = inhibition) at 10uM” value was -5.89%.
In the case of `CCc1ccc(NC(=S)N(Cc2cccnc2)Cc2ccco2)cc1`, the “hERG current change (%, negative = inhibition) at 10uM” value is reported as -17.2%.
For `CCCCn1c(Cc2ccccc2)nnc1SCC(=O)Nc1cc(C)on1`, the “hERG current change (%, negative = inhibition) at 10uM” value was 0.409%.
`Cc1cc(C)c([N+](=O)[O-])cc1-c1ccc(/C=N/NC(=O)c2nonc2N)o1` was tested, and the “hERG current change (%, negative = inhibition) at 10uM” value was -34%.
For `CCCCNC1=CC(=O)C(=O)c2ccccc21`, the “hERG current change (%, negative = inhibition) at 10uM” value was -38.4%.
In the case of `C=CCOc1ccc(/C=C2\SC(N)=NC2=O)cc1OC`, the “hERG current change (%, negative = inhibition) at 10uM” value is reported as 5.34%.
In the case of `O=C(Nc1ccc(F)c(F)c1)c1cccnc1`, the “hERG current change (%, negative = inhibition) at 10uM” value is reported as 0.898%.
`O=C(NCc1cccnc1)c1c(O)c2cccc3c2n(c1=O)CCC3` was tested, and the “hERG current change (%, negative = inhibition) at 10uM” value was -41.6%.
For `O=C1CCC(=O)N1c1ccc(S(=O)(=O)Nc2cccc(Br)c2)cc1`, the “hERG current change (%, negative = inhibition) at 10uM” value was 4.74%.
For `Nn1c(Cc2ccccc2F)n[nH]c1=S`, the “hERG current change (%, negative = inhibition) at 10uM” value was 46%.
`CCOC(=O)C1CCCN(C(=O)c2ccccc2[N+](=O)[O-])C1` (stereo not shown) was tested, and the “hERG current change (%, negative = inhibition) at 10uM” value was 12.9%.
For `COc1ccc(N2C(=O)CC(NCc3cccs3)C2=O)cc1` (stereo not shown), the “hERG current change (%, negative = inhibition) at 10uM” value was -2.02%.
In the case of `CCN(CC)C(=O)CN(c1cccc(C(F)(F)F)c1)S(C)(=O)=O`, the “hERG current change (%, negative = inhibition) at 10uM” value is reported as -9.63%.
In the case of `CCN(CC(=O)Nc1c(F)cccc1F)C(=O)C1CC1`, the “hERG current change (%, negative = inhibition) at 10uM” value is reported as 3.28%.
For `CC(C(=O)O)n1nc2ccccc2n1` (stereo not shown), the “hERG current change (%, negative = inhibition) at 10uM” value was 21.4%.
`O=C1CC(N2CCC(c3nc4ccccc4o3)CC2)C(=O)N1c1ccc(F)cc1` (stereo not shown) was tested, and the “hERG current change (%, negative = inhibition) at 10uM” value was -46.3%.
For `CCOC(=O)c1c(NC(=O)Cn2nc(C(=O)O)c3ccccc3c2=O)sc(CC)c1C`, the “hERG current change (%, negative = inhibition) at 10uM” value was 42%.
In the case of `COc1ccc(Cl)cc1N(CC(=O)Nc1ccccc1SC)S(C)(=O)=O`, the “hERG current change (%, negative = inhibition) at 10uM” value is reported as -19.9%.
In the case of `Fc1ccc(CSc2nsc(SCc3ccc(F)cc3)n2)cc1`, the “hERG current change (%, negative = inhibition) at 10uM” value is reported as 9.9%.
For `COc1cc2c(cc1OC)CN(C(=O)C1(c3ccccc3)CC1)CC2`, the “hERG current change (%, negative = inhibition) at 10uM” value was -13.4%.
With `CCOC(=O)/C(C#N)=C1\SS/C(=C(/C#N)C(=O)OCC)S1` the “hERG current change (%, negative = inhibition) at 10uM” value was 18.5%.
For `CCOc1cc2[nH]c(=S)n(Cc3ccc(C(=O)NCCOC)cc3)c(=O)c2cc1OCC`, the “hERG current change (%, negative = inhibition) at 10uM” value was 2.62%.
In the case of `Cc1ccc(/C=N/NC(=O)c2c(-c3ccccc3)noc2C)c(O)c1`, the “hERG current change (%, negative = inhibition) at 10uM” value is reported as -5.9%.
`O=C(COC(=O)/C=C/c1cccc(F)c1)NC1CCCC1` was tested, and the “hERG current change (%, negative = inhibition) at 10uM” value was 4.41%.
With `O=C(c1cccs1)N1CCN(S(=O)(=O)c2ccc(F)cc2)CC1` the “hERG current change (%, negative = inhibition) at 10uM” value was -7.26%.
For `O=C(Nc1ccc2oc(-c3ccncc3)nc2c1)c1ccccc1`, the “hERG current change (%, negative = inhibition) at 10uM” value was 9.7%.
`C/C(=N/NS(=O)(=O)c1ccc(C)c(C)c1)c1c[nH]c2ccccc12` was tested, and the “hERG current change (%, negative = inhibition) at 10uM” value was 29.6%.
In the case of `Cc1cc2c(C)c(C)c(=O)[nH]c2cc1N`, the “hERG current change (%, negative = inhibition) at 10uM” value is reported as 7.66%.
In the case of `COc1ccc(C(=O)NC(C)CCc2ccccc2)cc1[N+](=O)[O-]` (stereo not shown), the “hERG current change (%, negative = inhibition) at 10uM” value is reported as -33.7%.
`CCc1nnc(N/N=C/c2ccc(-c3ccc([N+](=O)[O-])cc3)o2)n1N` was tested, and the “hERG current change (%, negative = inhibition) at 10uM” value was -18.6%.
With `O=C(COC(=O)c1cc(=O)[nH]c2ccccc12)c1cccs1` the “hERG current change (%, negative = inhibition) at 10uM” value was 19.8%.
For `CCOC(=O)c1sc(=S)n(C)c1N`, the “hERG current change (%, negative = inhibition) at 10uM” value was -12.2%.
`Cc1nnc(Nc2ccc(Cl)cc2)s1` was tested, and the “hERG current change (%, negative = inhibition) at 10uM” value was 8.14%.
For `CCOC(=O)C1(Cc2cccc(Cl)c2)CCCN(C(=O)CCNC(C)=O)C1` (stereo not shown), the “hERG current change (%, negative = inhibition) at 10uM” value was 7.98%.
For `O=C(COC(=O)c1cc2ccccc2oc1=O)Nc1cccc(Br)c1`, the “hERG current change (%, negative = inhibition) at 10uM” value was 18.3%.
With `Cc1ccccc1NC(=S)NCCc1ccccc1` the “hERG current change (%, negative = inhibition) at 10uM” value was 5.04%.
`CCOc1c2ccoc2nc2c(OC)c(OC)ccc12` was tested, and the “hERG current change (%, negative = inhibition) at 10uM” value was -2.57%.
In the case of `Cc1c(C(O)CN2CCC(C(N)=O)CC2)c2ccccc2n1C` (stereo not shown), the “hERG current change (%, negative = inhibition) at 10uM” value is reported as -3.73%.
In the case of `CCOc1cccc2cc(C(=O)NCc3cccnc3)c(=O)oc12`, the “hERG current change (%, negative = inhibition) at 10uM” value is reported as -1.94%.
`COC(=O)CCC(=O)NNC(=O)c1ccc(Cl)cc1Cl` was tested, and the “hERG current change (%, negative = inhibition) at 10uM” value was 18%.
With `Clc1ccc(-c2ccnc(Oc3ccc4ccccc4c3)n2)cc1` the “hERG current change (%, negative = inhibition) at 10uM” value was 7.34%.
In the case of `C=CCNc1cc(C)oc(=O)c1C(=O)CC`, the “hERG current change (%, negative = inhibition) at 10uM” value is reported as -4.15%.
For `COc1ccc(C=O)cc1CSc1ccccn1`, the “hERG current change (%, negative = inhibition) at 10uM” value was -11.2%.
With `CN1CCN(c2ccc([N+](=O)[O-])c(NCC3CCCO3)c2)CC1.Cl` (stereo not shown) the “hERG current change (%, negative = inhibition) at 10uM” value was -41.4%.
For `O=C(COC(=O)C1CCC1)NCc1ccc(Cl)cc1Cl`, the “hERG current change (%, negative = inhibition) at 10uM” value was 6.29%.
For `CC(=O)C1=C(O)CCC1=NCCc1ccccc1`, the “hERG current change (%, negative = inhibition) at 10uM” value was 5.41%.
With `O=C(Nc1ccc(OC(F)(F)F)cc1)Nc1cccnc1` the “hERG current change (%, negative = inhibition) at 10uM” value was -45.5%.
`Cn1cccc1Cc1nnc(SCC(=O)Nc2ccc(F)cc2)n1CCc1ccccc1` was tested, and the “hERG current change (%, negative = inhibition) at 10uM” value was -41.3%.
In the case of `O=C1NCCCc2c1no[n+]2[O-]`, the “hERG current change (%, negative = inhibition) at 10uM” value is reported as 10.1%.
For `C/C(=N\NC(=O)CSc1nc(C)cc(C)n1)c1ccc([N+](=O)[O-])cc1`, the “hERG current change (%, negative = inhibition) at 10uM” value was -10.8%.
For `Cc1ccccc1NC(=O)COC(=O)c1cc(S(=O)(=O)N2CCOCC2)ccc1C`, the “hERG current change (%, negative = inhibition) at 10uM” value was -3.81%.
With `CCN1CCN(C(=O)COc2ccc(S(=O)(=O)NC(C)C)cc2)CC1` the “hERG current change (%, negative = inhibition) at 10uM” value was 16%.
With `S=C(NCCN1CCOCC1)NC1CCCC1` the “hERG current change (%, negative = inhibition) at 10uM” value was 13.4%.
In the case of `CCOC(=O)NN=C1CN(S(=O)(=O)c2ccc(C)cc2)C1`, the “hERG current change (%, negative = inhibition) at 10uM” value is reported as 14.7%.
With `CCN1CCN(C(=O)CCN2C(=O)c3ccccc3S2(=O)=O)CC1.Cl` the “hERG current change (%, negative = inhibition) at 10uM” value was 7%.
`O=Cc1ccccc1OCCOc1ccc([N+](=O)[O-])cc1` was tested, and the “hERG current change (%, negative = inhibition) at 10uM” value was -35%.
`CNC(=O)c1ccc(NC(=O)c2cc(S(=O)(=O)N(C)C)ccc2N2CCCC2)cc1` was tested, and the “hERG current change (%, negative = inhibition) at 10uM” value was 1.67%.
`COc1ccccc1Nc1ccncc1[N+](=O)[O-]` was tested, and the “hERG current change (%, negative = inhibition) at 10uM” value was 3.13%.
With `CCS(=O)(=O)Nc1cccc(C2=NN(S(C)(=O)=O)C(c3cccs3)C2)c1` (stereo not shown) the “hERG current change (%, negative = inhibition) at 10uM” value was -11.1%.
